To fix the notation:
B1: CPEB3 Ribozyme (parent)
chain: UAACAGGGGGCCACAGCAGAAGCGUUCACGUCGCAGCCCCUGUCAGAUUCUGGUGAAUCUGCGAAUUCUGCUGUAUAUCUC

Read counts are not given, so values of variants with three or more changes are uncertain.

The variants in this data set derive from B1. Kind of data set: self-cleavage, relative activity (ratio to wild type); higher = more cleavage; in vitro, sequencing. The gist of the method:
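Barcoded CPEB3 ribozyme mutants, produced by rounds of error-prone PCR, self-cleaved while being transcribed with T7 RNA polymerase for 5 hours at 37°C and during a subsequent 15 min DNase I step before EDTA was added. Sequencing of template-switched cDNA on Illumina gave cleaved and total reads, and DNA sequencing assigned barcodes to variants. Each variant's relative activity is its cleaved/total read fraction divided by the unmutated ribozyme's fraction, averaged across three batches. A variant needed a minimum of 5 reads.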
For A21U C39A U41A U60G U69G U72C, the self-cleavage came out at 0.05.

C23G A64G U80C: the self-cleavage came to 0.25. The figure for C23A U26C U41A U51C U80A is 0.27.

With A21G U43C A75G, the self-cleavage is 0.15. The value for A21G U25C A64U U74C was 0.06; that for A21G U26A C32A U43A A65G U80C was 0.11; that for C23G C32A C40A C71A was 0.04. The value for A21G U25G G42A U74C was 0.42. The figure for G22U U25C A65U is 0.12; for A21G U25C G30A U58C it is 0.4; for A21G U26C U51C U69C U80A it is 0.07. In the case of A21G U41C U51C U78C, the self-cleavage is 0.56. The value for C23U A35G A47U was 0.49; that for A21U C29U U80C was 0.29; that for G22A A35U C38A A56G A64U U74C was 0.1. The value for C23G U43C U48C A75U was 0.12; that for C23A A28G U41C U54C A65G U78C was 0.06. Turning to A21G U54A C59U, the self-cleavage stood at 0.15.

For C23G U25C A77G, the self-cleavage amounted to 0.19.

C23G U31C A35U A64G U72C: the self-cleavage is 0.05. The figure for A21G U74C A75G is 0.99; for G22A U25C A28U U41C A47G U54G it is 0.15. The value for G22A U41A U78C was 0.12. The figure for A21U U43C U49C U54A is 0.37. As for A21U U66C U80C, the self-cleavage came out at 0.39. Turning to C23U U25C U41C, the self-cleavage turned out to be 0.06. The figure for A21G U41C U49C is 0.51; for A21G U26C U48C G61A it is 0.11. For the variant A21G C39U G42A U43C G63U, the self-cleavage amounted to 0.06. The figure for A21G U25C U66C U80C is 0.13; for G22C U41A U51C U80C it is 0.09. Regarding A21G U31G U43A U60A, the self-cleavage amounted to 0.07. For C23U A64U U69A A75G, the self-cleavage turned out to be 0.13. For C23U U31A U51A A57U U58C, the self-cleavage was 0.07. On to A21U U74A A77C, for which the self-cleavage turned out to be 0.77. With A21G U31C A57U, the self-cleavage is 0.17.

Regarding G22A U72C U78C, the self-cleavage was determined as 0.29. Turning to C23G U25C A35U U60C, the self-cleavage was found to be 0.06. The figure for A21G G30A U31A U58C A65G is 0.07; for A21G U25C A28G U43C U58A C59U U67C it is 0.48; for A21G U31C C34G U51A U69C it is 0.06.

Turning to A21G U25C A35C, the self-cleavage was determined as 0.07. In the case of A21G U31A U41C U49C U51C C59A U72A, the self-cleavage turned out to be 0.04. The value for A21U U43A A65G U76C was 0.24; that for A21G U25C A45G U80A was 0.16; that for C23G A45G U72C was 0.09. The figure for A21G U67C U78A is 0.13; for A21G C38U U48C A65U it is 0.31.

A21U G33A U51C U72A: the self-cleavage was found to be 0.11. A21G U25A A28G C44U A47G C62U A65G: the self-cleavage was found to be 0.1. A21G C38A U41A U49A: the self-cleavage is 0.07. On to A21G U60C U69C, for which the self-cleavage stood at 0.25.

On to A21G U41C U78C, for which the self-cleavage turned out to be 0.45. The value for A21G U26A C38U A64G U72G was 0.18; that for A21G G24C U69A U74A was 0.07; that for G22A U25A C38U U41G A56G G70A was 0.05. Consider A21G U31C A45U C59A U60A, for which the self-cleavage was 0.13.

Take A21U U31C A45U U51A A64G: the self-cleavage was found to be 0.06.

A21G U25C U41C U49C: the self-cleavage amounted to 0.07.

As for G22C U48C U69C, the self-cleavage worked out at 0.1. For A21G C38A U41C G42C U54A A77U, the self-cleavage was found to be 0.11. The figure for A21G U66C C71A U72A is 0.15; for C23U C29G U51C it is 0.1. The figure for A21G U74A A75G is 0.31; for A21G G24A G33A U43C it is 0.07. For the variant A21G G33C U41C U43C A64G, the self-cleavage stood at 0.06. The figure for A21G G33C A56U U72A is 0.09; for G22A U26C A28U U60C U72G it is 0.06. The figure for G22C G24A U26C C62A is 0.07; for G22U U26A A28G it is 0.26; for C23A U41C A47G it is 0.16.

In the case of A21G U26C U41A, the self-cleavage turned out to be 0.34. In the case of A21G G30C A47G U60C A65G, the self-cleavage stood at 0.08.

Regarding A21G U43A U58C U69A, the self-cleavage came to 0.21. The figure for A21G U25C G36A U72G is 0.06; for A21G U26C C34U C39A C59G it is 0.05.

Regarding A21G U41A U67A U72C, the self-cleavage was 0.15. As to A21G U31A U41C, the self-cleavage was 0.33. As to A21G G24A A28G A45G G70A A75U, the self-cleavage worked out at 0.33. In the case of A21G G33C U49C U67C G70C U72C, the self-cleavage came to 0.18. On to A21G G36A U51A A64G A65G, for which the self-cleavage stood at 0.08. Consider A21G U26A U69A, for which the self-cleavage was determined as 0.19. A21U C23A C29U A56U C62A U80G: the self-cleavage came out at 0. The value for A21G U49C U60C A77U was 0.24.

The record behind these values is the RNAGym collection of RNA variant scans (doi:10.1093/nar/gkz1192).
